From PMC12820563, “FoxP3 forms a head-to-head dimer in vivo and stabilizes its multimerization on adjacent microsatellites”
The list shows a part of the results.

target: T1, MBP-FoxP1dN (Mus musculus, UniProt P58462 326-579); assay: PD-seq (MBP pull-down with sequencing); 20 mM Tris-HCl pH 7.5, 100 mM NaCl, 1.5 mM MgCl2, 0.4 uM protein, 0.1 uM dsDNA library, 30 min, room temperature, amylose pull-down; high values mean tight binding; settings: protein: recombinant; tags: His6-MBP; chain copies: 2; dsDNA, one strand shown
T1 sequence: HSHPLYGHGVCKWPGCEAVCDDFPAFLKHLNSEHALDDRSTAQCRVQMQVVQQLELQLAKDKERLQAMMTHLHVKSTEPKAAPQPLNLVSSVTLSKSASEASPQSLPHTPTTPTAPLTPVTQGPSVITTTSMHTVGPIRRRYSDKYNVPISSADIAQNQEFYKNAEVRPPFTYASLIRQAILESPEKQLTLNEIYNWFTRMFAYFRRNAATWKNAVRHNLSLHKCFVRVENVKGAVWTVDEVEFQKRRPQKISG
Outline: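 Binding is given as reads-per-million enrichment, pull-down over input, with replicates pooled. The bait was an N-terminus-lacking mouse FoxP3 or FoxP1 fragment with a His6-MBP tag, expressed in E. coli and used at 0.4 µM with 0.1 µM Klenow-filled degenerate double-stranded DNA library for 30 min at room temperature in Tris pH 7.5 buffer with NaCl and MgCl2. Amylose resin pull-down with three washes was followed by proteinase K release, PCR barcoding and Illumina sequencing.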

| Sequence | binding signal |
| --- | --- |
| GATGATTGTTCTCCCAGCTGATGAATTGTTTATTTCGAGTAAACAAATTTTCCTAATCTTTCTGTTCAAGCGCCATCTAC | 2.77 RPM ratio (pull-down/input) |
| GATGATTGTTCTCCCAGCTGATGAATTCCTGCTTTCGAGTAAACAAATTTTCCTAATCTTTCTGTTCAAGCGCCATCTAC | 1.19 RPM ratio (pull-down/input) |
| GATGATTGTTCTCCCAGCTGATGAATTTGATGTGTCGAGTAAACAAATTTTCCTAATCTTTCTGTTCAAGCGCCATCTAC | 1.16 RPM ratio (pull-down/input) |
| GATGATTGTTCTCCCAGCTGATGAATTGAGATTTTCGAGTAAACAAATTTTCCTAATCTTTCTGTTCAAGCGCCATCTAC | 0.923 RPM ratio (pull-down/input) |
| GATGATTGTTCTCCCAGCTGATGAATTGGCCAGCTCGAGTAAACAAATTTTCCTAATCTTTCTGTTCAAGCGCCATCTAC | 0.731 RPM ratio (pull-down/input) |
| GATGATTGTTCTCCCAGCTGATGAATTGACCGGTTCGAGTAAACAAATTTTCCTAATCTTTCTGTTCAAGCGCCATCTAC | 0.902 RPM ratio (pull-down/input) |
| GATGATTGTTCTCCCAGCTGATGAATTTGACTTTTCGAGTAAACAAATTTTCCTAATCTTTCTGTTCAAGCGCCATCTAC | 0.876 RPM ratio (pull-down/input) |
| GATGATTGTTCTCCCAGCTGATGAATTTCTCGCCTCGAGTAAACAAATTTTCCTAATCTTTCTGTTCAAGCGCCATCTAC | 0.885 RPM ratio (pull-down/input) |
| GATGATTGTTCTCCCAGCTGATGAATTGACAAGCTCGAGTAAACAAATTTTCCTAATCTTTCTGTTCAAGCGCCATCTAC | 1.15 RPM ratio (pull-down/input) |
| GATGATTGTTCTCCCAGCTGATGAATTCCAGCGTTCGAGTAAACAAATTTTCCTAATCTTTCTGTTCAAGCGCCATCTAC | 0.883 RPM ratio (pull-down/input) |
| GATGATTGTTCTCCCAGCTGATGAATTGTCATGCTCGAGTAAACAAATTTTCCTAATCTTTCTGTTCAAGCGCCATCTAC | 1.07 RPM ratio (pull-down/input) |
| GATGATTGTTCTCCCAGCTGATGAATTTGAGTGATCGAGTAAACAAATTTTCCTAATCTTTCTGTTCAAGCGCCATCTAC | 0.906 RPM ratio (pull-down/input) |
| GATGATTGTTCTCCCAGCTGATGAATTCAGGGATTCGAGTAAACAAATTTTCCTAATCTTTCTGTTCAAGCGCCATCTAC | 0.875 RPM ratio (pull-down/input) |
| GATGATTGTTCTCCCAGCTGATGAATTTCCACCCTCGAGTAAACAAATTTTCCTAATCTTTCTGTTCAAGCGCCATCTAC | 0.882 RPM ratio (pull-down/input) |
| GATGATTGTTCTCCCAGCTGATGAATTTCCGAGTTCGAGTAAACAAATTTTCCTAATCTTTCTGTTCAAGCGCCATCTAC | 0.813 RPM ratio (pull-down/input) |
| GATGATTGTTCTCCCAGCTGATGAATTCGTACAGTCGAGTAAACAAATTTTCCTAATCTTTCTGTTCAAGCGCCATCTAC | 0.897 RPM ratio (pull-down/input) |
| GATGATTGTTCTCCCAGCTGATGAATTGTGGTGCTCGAGTAAACAAATTTTCCTAATCTTTCTGTTCAAGCGCCATCTAC | 1.1 RPM ratio (pull-down/input) |
| GATGATTGTTCTCCCAGCTGATGAATTTCGTCCGTCGAGTAAACAAATTTTCCTAATCTTTCTGTTCAAGCGCCATCTAC | 0.836 RPM ratio (pull-down/input) |
| GATGATTGTTCTCCCAGCTGATGAATTCCCCCCTTCGAGTAAACAAATTTTCCTAATCTTTCTGTTCAAGCGCCATCTAC | 0.782 RPM ratio (pull-down/input) |
| GATGATTGTTCTCCCAGCTGATGAATTGCTATAATCGAGTAAACAAATTTTCCTAATCTTTCTGTTCAAGCGCCATCTAC | 1.34 RPM ratio (pull-down/input) |
| GATGATTGTTCTCCCAGCTGATGAATTATCCTGATCGAGTAAACAAATTTTCCTAATCTTTCTGTTCAAGCGCCATCTAC | 0.864 RPM ratio (pull-down/input) |

| Sequence | binding signal |
| --- | --- |
| GATGATTGTTCTCCCAGCTGATGAATTTTTGCACTCGAGTAAACAAATTTTCCTAATCTTTCTGTTCAAGCGCCATCTAC | 0.891 RPM ratio (pull-down/input) |
| GATGATTGTTCTCCCAGCTGATGAATTATTTCGTTCGAGTAAACAAATTTTCCTAATCTTTCTGTTCAAGCGCCATCTAC | 1.13 RPM ratio (pull-down/input) |
| GATGATTGTTCTCCCAGCTGATGAATTCCTCCCGTCGAGTAAACAAATTTTCCTAATCTTTCTGTTCAAGCGCCATCTAC | 0.793 RPM ratio (pull-down/input) |
| GATGATTGTTCTCCCAGCTGATGAATTTTTGCTATCGAGTAAACAAATTTTCCTAATCTTTCTGTTCAAGCGCCATCTAC | 1.21 RPM ratio (pull-down/input) |
| GATGATTGTTCTCCCAGCTGATGAATTACCCTCATCGAGTAAACAAATTTTCCTAATCTTTCTGTTCAAGCGCCATCTAC | 0.938 RPM ratio (pull-down/input) |
| GATGATTGTTCTCCCAGCTGATGAATTCCCCGGGTCGAGTAAACAAATTTTCCTAATCTTTCTGTTCAAGCGCCATCTAC | 0.71 RPM ratio (pull-down/input) |
| GATGATTGTTCTCCCAGCTGATGAATTGCTTATGTCGAGTAAACAAATTTTCCTAATCTTTCTGTTCAAGCGCCATCTAC | 1.4 RPM ratio (pull-down/input) |
| GATGATTGTTCTCCCAGCTGATGAATTTGCCGTGTCGAGTAAACAAATTTTCCTAATCTTTCTGTTCAAGCGCCATCTAC | 0.872 RPM ratio (pull-down/input) |
| GATGATTGTTCTCCCAGCTGATGAATTAGGTTGTTCGAGTAAACAAATTTTCCTAATCTTTCTGTTCAAGCGCCATCTAC | 1.13 RPM ratio (pull-down/input) |
| GATGATTGTTCTCCCAGCTGATGAATTCGCAGCCTCGAGTAAACAAATTTTCCTAATCTTTCTGTTCAAGCGCCATCTAC | 0.832 RPM ratio (pull-down/input) |
| GATGATTGTTCTCCCAGCTGATGAATTCTATATGTCGAGTAAACAAATTTTCCTAATCTTTCTGTTCAAGCGCCATCTAC | 0.966 RPM ratio (pull-down/input) |
| GATGATTGTTCTCCCAGCTGATGAATTTTTGATGTCGAGTAAACAAATTTTCCTAATCTTTCTGTTCAAGCGCCATCTAC | 1.3 RPM ratio (pull-down/input) |
| GATGATTGTTCTCCCAGCTGATGAATTCCAAGCGTCGAGTAAACAAATTTTCCTAATCTTTCTGTTCAAGCGCCATCTAC | 0.867 RPM ratio (pull-down/input) |
| GATGATTGTTCTCCCAGCTGATGAATTTACTCCATCGAGTAAACAAATTTTCCTAATCTTTCTGTTCAAGCGCCATCTAC | 1.29 RPM ratio (pull-down/input) |
| GATGATTGTTCTCCCAGCTGATGAATTAACGAGGTCGAGTAAACAAATTTTCCTAATCTTTCTGTTCAAGCGCCATCTAC | 0.865 RPM ratio (pull-down/input) |
| GATGATTGTTCTCCCAGCTGATGAATTGTCTACGTCGAGTAAACAAATTTTCCTAATCTTTCTGTTCAAGCGCCATCTAC | 1.05 RPM ratio (pull-down/input) |
| GATGATTGTTCTCCCAGCTGATGAATTGAAATCCTCGAGTAAACAAATTTTCCTAATCTTTCTGTTCAAGCGCCATCTAC | 0.722 RPM ratio (pull-down/input) |
| GATGATTGTTCTCCCAGCTGATGAATTGAGTTGTTCGAGTAAACAAATTTTCCTAATCTTTCTGTTCAAGCGCCATCTAC | 1.16 RPM ratio (pull-down/input) |
| GATGATTGTTCTCCCAGCTGATGAATTGTAAATCTCGAGTAAACAAATTTTCCTAATCTTTCTGTTCAAGCGCCATCTAC | 1.16 RPM ratio (pull-down/input) |
| GATGATTGTTCTCCCAGCTGATGAATTCGCGTGATCGAGTAAACAAATTTTCCTAATCTTTCTGTTCAAGCGCCATCTAC | 0.952 RPM ratio (pull-down/input) |
| GATGATTGTTCTCCCAGCTGATGAATTAGATTTTTCGAGTAAACAAATTTTCCTAATCTTTCTGTTCAAGCGCCATCTAC | 0.869 RPM ratio (pull-down/input) |

| Sequence | binding signal |
| --- | --- |
| GATGATTGTTCTCCCAGCTGATGAATTGCTTCACTCGAGTAAACAAATTTTCCTAATCTTTCTGTTCAAGCGCCATCTAC | 1.01 RPM ratio (pull-down/input) |
| GATGATTGTTCTCCCAGCTGATGAATTTATCGGTTCGAGTAAACAAATTTTCCTAATCTTTCTGTTCAAGCGCCATCTAC | 1.09 RPM ratio (pull-down/input) |
| GATGATTGTTCTCCCAGCTGATGAATTTATCGTGTCGAGTAAACAAATTTTCCTAATCTTTCTGTTCAAGCGCCATCTAC | 1.22 RPM ratio (pull-down/input) |
| GATGATTGTTCTCCCAGCTGATGAATTCTCATGTTCGAGTAAACAAATTTTCCTAATCTTTCTGTTCAAGCGCCATCTAC | 0.861 RPM ratio (pull-down/input) |
| GATGATTGTTCTCCCAGCTGATGAATTTCTGACATCGAGTAAACAAATTTTCCTAATCTTTCTGTTCAAGCGCCATCTAC | 0.96 RPM ratio (pull-down/input) |
| GATGATTGTTCTCCCAGCTGATGAATTGCGGATTTCGAGTAAACAAATTTTCCTAATCTTTCTGTTCAAGCGCCATCTAC | 1.14 RPM ratio (pull-down/input) |
| GATGATTGTTCTCCCAGCTGATGAATTGGAGGCTTCGAGTAAACAAATTTTCCTAATCTTTCTGTTCAAGCGCCATCTAC | 0.93 RPM ratio (pull-down/input) |
| GATGATTGTTCTCCCAGCTGATGAATTGGGCAGGTCGAGTAAACAAATTTTCCTAATCTTTCTGTTCAAGCGCCATCTAC | 0.719 RPM ratio (pull-down/input) |
| GATGATTGTTCTCCCAGCTGATGAATTCAGACCATCGAGTAAACAAATTTTCCTAATCTTTCTGTTCAAGCGCCATCTAC | 0.799 RPM ratio (pull-down/input) |
| GATGATTGTTCTCCCAGCTGATGAATTGACCTGATCGAGTAAACAAATTTTCCTAATCTTTCTGTTCAAGCGCCATCTAC | 0.942 RPM ratio (pull-down/input) |
| GATGATTGTTCTCCCAGCTGATGAATTCGTAGTATCGAGTAAACAAATTTTCCTAATCTTTCTGTTCAAGCGCCATCTAC | 1 RPM ratio (pull-down/input) |
| GATGATTGTTCTCCCAGCTGATGAATTAAGTTTATCGAGTAAACAAATTTTCCTAATCTTTCTGTTCAAGCGCCATCTAC | 1.55 RPM ratio (pull-down/input) |
| GATGATTGTTCTCCCAGCTGATGAATTCCATCCGTCGAGTAAACAAATTTTCCTAATCTTTCTGTTCAAGCGCCATCTAC | 0.766 RPM ratio (pull-down/input) |
| GATGATTGTTCTCCCAGCTGATGAATTAACAAACTCGAGTAAACAAATTTTCCTAATCTTTCTGTTCAAGCGCCATCTAC | 1.31 RPM ratio (pull-down/input) |
| GATGATTGTTCTCCCAGCTGATGAATTGCGCGTTTCGAGTAAACAAATTTTCCTAATCTTTCTGTTCAAGCGCCATCTAC | 1.19 RPM ratio (pull-down/input) |
| GATGATTGTTCTCCCAGCTGATGAATTGTTCCGATCGAGTAAACAAATTTTCCTAATCTTTCTGTTCAAGCGCCATCTAC | 1.04 RPM ratio (pull-down/input) |
| GATGATTGTTCTCCCAGCTGATGAATTCCTCCACTCGAGTAAACAAATTTTCCTAATCTTTCTGTTCAAGCGCCATCTAC | 0.831 RPM ratio (pull-down/input) |
| GATGATTGTTCTCCCAGCTGATGAATTAGGGACGTCGAGTAAACAAATTTTCCTAATCTTTCTGTTCAAGCGCCATCTAC | 0.843 RPM ratio (pull-down/input) |
| GATGATTGTTCTCCCAGCTGATGAATTTTTGAATTCGAGTAAACAAATTTTCCTAATCTTTCTGTTCAAGCGCCATCTAC | 0.974 RPM ratio (pull-down/input) |
| GATGATTGTTCTCCCAGCTGATGAATTATCTGGCTCGAGTAAACAAATTTTCCTAATCTTTCTGTTCAAGCGCCATCTAC | 0.861 RPM ratio (pull-down/input) |
| GATGATTGTTCTCCCAGCTGATGAATTTGGTGTATCGAGTAAACAAATTTTCCTAATCTTTCTGTTCAAGCGCCATCTAC | 1.17 RPM ratio (pull-down/input) |
